In the supplement of paper PMC12217912:
Some of the results follow. Sequences were assembled here from the parent chain. Values near 0.05 are background.

B1: TEV protease; numbered along this chain (parent)
chain: MGESLFKGPRDYNPISSSICHLTNESDGHTTSLYGIGFGPFIITNKHLFRRNNGTLVVQSLHGVFKVKDTTTLQQHLVDGRDMIIIRMPKDFPPFPQKLKFREPQREERICLVTTNFQTKSMSSMVSDTSCTFPSGDGIFWKHWIQTKDGQCGSPLVSTRDGFIVGIHSASNFTNTNNYFTSVPKNFMELLTNQEAQQWVSGWRLNADSVLWGGHKVFMVKPEEPFQPVKEATQL

Variants of: B1
Assay: raw area under fraction-flipped curve 0-4 h after induction (AUC4h, not background-subtracted), DNA-recorder readout of cleavage of the substrate (dimensionless); higher = more cleavage of the substrate by the protease variant
Conditions: temperature: 34 °C; time window: 0-4 h after rhamnose induction
Description: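 In vivo DNA recorder in E. coli TOP10(DE3) ΔrhaA at 34 °C. Each TEVp single-site mutant (parent TEVp 0) is paired with a single-site variant of the 7-mer TEVs (canonical ENLYFQ|S). The substrate sits between flexible linkers in a Bxb1-sfGFP-TEVs-SsrA fusion, so cleavage stabilises Bxb1 and speeds flipping of a recombination array, read by NGS. The value is the raw area under the fraction-flipped curve over 0-4 h after rhamnose induction (AUC4h), with ≥20 reads per time point. It is not background-subtracted; inactive controls average about 0.047.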
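Further: Bxb1 expression induced with 0.2% (w/v) L-rhamnose at OD600 near 0.5, cultures sampled hourly, flipped fraction per protease–substrate barcode pair counted by paired-end Illumina sequencing.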

| Variant | area with substrate ANLYFQS | area with substrate CNLYFQS | area with substrate DNLYFQS | area with substrate FNLYFQS | area with substrate HNLYFQS | area with substrate LNLYFQS | area with substrate MNLYFQS | area with substrate PNLYFQS | area with substrate SNLYFQS | area with substrate TNLYFQS | area with substrate VNLYFQS | area with substrate WNLYFQS | area with substrate YNLYFQS | area with substrate GNLYFQS | area with substrate INLYFQS | area with substrate KNLYFQS | area with substrate NNLYFQS | area with substrate QNLYFQS | area with substrate RNLYFQS |
| --- | --- | --- | --- | --- | --- | --- | --- | --- | --- | --- | --- | --- | --- | --- | --- | --- | --- | --- | --- |
| MGESLFKGPRDYNPISSSICHLTNESDGHTTSLYGIGFGPFIITNKHLFRRNNGTLVVQSLHGVFKVKDTTTLQQHLVDGRDMIIIRMPKDFPPFPQKLKFREPQREERICLVTTNFQTKSMSSMVSDTSCTFPSGDGIFWKHWIQTKDGQCGSPLVSTRDGFIVGIHSASNFTNTNNYFTSVPKNQMELLTNQEAQQWVSGWRLNADSVLWGGHKVFMVKPEEPFQPVKEATQL [F187Q] | 0.0368 | 0.061 | 0.0604 | 0.0462 | 0.019 | 0.0466 | 0.0711 | 0.0585 | 0.0593 | 0.0576 | 0.0226 | 0.0498 | 0.0592 |  |  |  |  |  |  |
| MGESLFKGPRDYNPISSSICHLTNESDGHTTSLYGIGFGPFIITNKHLFRRNNGTLVVQSLHGVFKVKDTTTLQQHLVDGRDMIIIRMPKDFPPFPQKLKFREPQREERICLVTTNFQTKSMSSMVSDTSCTNPSGDGIFWKHWIQTKDGQCGSPLVSTRDGFIVGIHSASNFTNTNNYFTSVPKNFMELLTNQEAQQWVSGWRLNADSVLWGGHKVFMVKPEEPFQPVKEATQL [F133N] | 0.0564 | 0.0648 | 0.0819 | 0.0363 | 0.0566 | 0.0643 |  | 0.0638 | 0.0859 | 0.0751 | 0.0793 | 0.0659 | 0.0637 | 0.074 | 0.0639 | 0.0713 |  |  |  |
| MGESLFKGPRDYNPISSSICHLTNESDGHTTSLYGIGFGPFIITNKHLFRRNNGTLVVQSLHGVFKVKDTTTLQQHLVDGRDMIIIRMPKDFPPFPQKLKFREPQREERICLVTTNFQTKSMSSMVSDTSCTFPSGDGICWKHWIQTKDGQCGSPLVSTRDGFIVGIHSASNFTNTNNYFTSVPKNFMELLTNQEAQQWVSGWRLNADSVLWGGHKVFMVKPEEPFQPVKEATQL [F140C] | 0.0619 | 0.0689 | 0.0711 |  | 0.0589 | 0.0666 | 0.0642 | 0.0591 | 0.072 | 0.0541 | 0.0638 | 0.0597 | 0.0639 | 0.0436 | 0.0625 | 0.0576 | 0.0543 | 0.0445 | 0.0583 |
| MGESLFKGPRDYNPISSSICHLTNESDGHTTSLYGIGFGPFIITNKHLFRRNNGTLVVQSLHGVFKVKDTTTLQQHLVDGRDMIIIRMPKDFPPFPQKLKFREPQREERICLVTTNFQTKSMSSMVSDWSCTFPSGDGIFWKHWIQTKDGQCGSPLVSTRDGFIVGIHSASNFTNTNNYFTSVPKNFMELLTNQEAQQWVSGWRLNADSVLWGGHKVFMVKPEEPFQPVKEATQL [T129W] | 0.0442 | 0.0674 | 0.0798 | 0.0519 | 0.0644 | 0.062 | 0.0505 | 0.0718 | 0.0606 | 0.0608 | 0.0688 | 0.0645 | 0.0596 | 0.0599 |  |  | 0.0811 | 0.0815 | 0.0594 |
| MGESLFKGPRDYNPISSSICHLTNESDGHTTSLYGIGFGPFIITNKHLFRRNNGTLVVQSLHGVFKVKDTTTLQQHLVDGRDMIIIRMPKDFPPFPQKLKFREPQREERICLVTTNFQTKSMSSMVSDTSCTFPSGDGIFWKHWIQTKDGQCGSPLVSTRDGFIVGIHSASNFTNTNNYFTSVPKNFMELLTNQEAQQWVSGWRLNADSVLWGGHKVFMVKPEEPFQPVKEAGQL [T233G] | 0.0837 | 0.0824 | 0.0789 |  | 0.0692 |  | 0.064 |  |  | 0.074 |  | 0.0597 | 0.0297 |  | 0.0595 | 0.0737 |  |  |  |
| MGESLFKGPRDYNPISSSICHLTNESDGHTTSLYGIGFGPFIITNKHLFRRNNGTLVVQSLHGVFKVKDTTTLQQHLVDGRDMIIIRMPKHFPPFPQKLKFREPQREERICLVTTNFQTKSMSSMVSDTSCTFPSGDGIFWKHWIQTKDGQCGSPLVSTRDGFIVGIHSASNFTNTNNYFTSVPKNFMELLTNQEAQQWVSGWRLNADSVLWGGHKVFMVKPEEPFQPVKEATQL [D91H] | 0.084 | 0.0781 | 0.0794 |  | 0.0628 | 0.0627 | 0.0698 | 0.0699 | 0.0677 | 0.0807 | 0.0731 | 0.0621 | 0.0558 |  |  | 0.0615 | 0.0567 |  | 0.0647 |
| MGESLFKGPRDYNPISSSICHLTNESDGHTTSLYGIGFGPFIITNKHLFRRNNGTLVVQSLHGVFKVKDTTDLQQHLVDGRDMIIIRMPKDFPPFPQKLKFREPQREERICLVTTNFQTKSMSSMVSDTSCTFPSGDGIFWKHWIQTKDGQCGSPLVSTRDGFIVGIHSASNFTNTNNYFTSVPKNFMELLTNQEAQQWVSGWRLNADSVLWGGHKVFMVKPEEPFQPVKEATQL [T72D] | 0.0673 | 0.0686 | 0.0925 | 0.0498 | 0.057 | 0.0696 | 0.0916 |  | 0.0824 | 0.0684 | 0.0667 | 0.0641 | 0.0606 | 0.0803 |  | 0.0583 | 0.0355 | 0.0623 | 0.0444 |
| MGESLFKGPRDYNPISSSICHLTNESDGHTTSLYGIGFGPFIITNKHLFRRNNGTLVVQSLHGVFKVKDTTTLQQHLVDGRDMIIIRMPKDFPPFPQKLKFCEPQREERICLVTTNFQTKSMSSMVSDTSCTFPSGDGIFWKHWIQTKDGQCGSPLVSTRDGFIVGIHSASNFTNTNNYFTSVPKNFMELLTNQEAQQWVSGWRLNADSVLWGGHKVFMVKPEEPFQPVKEATQL [R102C] | 0.0763 | 0.0453 | 0.0509 | 0.0406 | 0.0539 | 0.0524 | 0.0395 |  | 0.0508 | 0.0528 | 0.0514 | 0.0441 | 0.0482 | 0.0258 |  |  | 0.0417 | 0.0446 |  |
| MGESLFKGPRDYNPISSSICHLTNESDGHTTSLYGIGFGPFIIDNKHLFRRNNGTLVVQSLHGVFKVKDTTTLQQHLVDGRDMIIIRMPKDFPPFPQKLKFREPQREERICLVTTNFQTKSMSSMVSDTSCTFPSGDGIFWKHWIQTKDGQCGSPLVSTRDGFIVGIHSASNFTNTNNYFTSVPKNFMELLTNQEAQQWVSGWRLNADSVLWGGHKVFMVKPEEPFQPVKEATQL [T44D] | 0.0368 | 0.0374 | 0.0546 | 0.0623 | 0.0395 | 0.0392 | 0.071 | 0.0355 | 0.0487 | 0.0363 | 0.0322 | 0.0399 | 0.0417 | 0.0485 |  | 0.0496 | 0.0481 |  |  |
